Measurements: PubChem BioAssay AID1347041 (National Center for Advancing Translational Sciences (NCATS), 2019)
“And” between values parts separate entries of the source, which are not always exact repeats. Equal entries are not always repeated. Screen size: about 480,000 compounds; about 740 (0.15%) were called active. Inconclusive results, whose numbers are uncertain, are shown with a selection of clear calls. Cut-off read from the data, not from the text of the source: active = activity change below about -30%; inconclusive = mostly about -25% to -30%; inactive = weaker than that.

molecular target: L-lactate dehydrogenase A chain (Homo sapiens) (UniProt P00338); assay: qHTS assay for inhibitors of human lactate dehydrogenase; settings: purified LDHA, NADH/diaphorase-resazurin fluorescence; stronger effect = lower value;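 note: values are at about 110 or 230 µM; plate controls were DMSO wells for no effect and wells without enzyme for full effect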
In short: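 Human LDH5 (2 nM) was incubated with 0.06 mM NADH and 0.2 mM pyruvate for 5 min at room temperature in Tris pH 7.4. Remaining NADH was coupled through diaphorase/resazurin, and resorufin fluorescence was read at 0 and 20 min.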

Activity change, inactive:
Nc1cccc(C(=O)OCC(=O)c2ccccc2)c1 -4.19%
N#C/C(=C/c1ccc(OCc2ccccc2C#N)c(Br)c1)c1ccccc1 10.5%
Cc1noc(NS(=O)(=O)c2ccc(NC(=O)c3ccccc3NS(=O)(=O)c3ccc(F)cc3)cc2)c1C -14.5%
CC(C)CCNC(=O)C1CC2Cn3c(nc4cc(Cl)c(Cl)cc43)C2N1C (stereo not drawn) 0.0402%
Cc1[nH]c2ccccc2c1C(=O)CN1C(=O)NC2(CCOc3ccccc32)C1=O (stereo not drawn) 4.71%
CC(C)NC(=O)c1cccc(NC(=O)Nc2ccc(Cl)cc2)c1 -11.1%
Cc1cc(C(=O)CSc2ccccc2Cl)c(C)[nH]1 -2.41%
CCN(CC)CCCNc1oc(-c2ccc([N+](=O)[O-])cc2)nc1C#N -4.99%
C=CCSc1nc2ccccc2n1C(=O)/C=C/c1ccc(OC)c(OC)c1 -2.31%
CCN(c1ccccc1)S(=O)(=O)c1ccc(Cl)c(NC(=O)CNCc2ccccc2OC)c1 -15.6%
CCCn1nnnc1NCc1ccc(F)cc1 -2.06%
COC(=O)C1=C(C)NC(C)=C(C(=O)OC)C1c1ccccc1[N+](=O)[O-] 22.7% and 16.8%
CC(C)(C)c1ccc(-c2noc(CCC(=O)N3CCOCC3)n2)cc1 -5.31%
Cn1c(CN2CCCCC2)nc2cc(NS(=O)(=O)c3ccc(F)cc3)ccc21 -5.45%
CCOCC(=O)Nc1nc2ccc(OCC)cc2s1 3.59%
CC(C)C(=O)N1CCN(C(=O)c2nn(C)c(=O)c3ccccc23)CC1 -4.57%
O=C(COC(=O)Cc1ccc(-c2ccccc2)cc1)NCc1ccc(F)cc1 -7.96%
Cc1ccc(NC(=O)N2CCc3c([nH]c4ccccc34)C2c2ccccc2F)c(Cl)c1 (stereo not drawn) -0.205%
CC(=O)Oc1ccc(C(=O)Nc2ccccc2C(=O)N2CCCC2)cc1 -6.92%
CCc1cc2c(cc3c(=O)n(CC(=O)NCCCN4CCCCCC4)nc(CC)n32)s1 0.65%
Cc1sc(NC(=O)c2ccco2)c(CN2CCN(c3ccccc3)CC2)c1C -2.08%
CC(=O)N/N=C/c1cc(Cl)ccc1OCCCOc1cc(C)ccc1C(C)C 6.77%
CC(C)c1ccc2[nH]c3c(c2c1)CCC/C3=N\NC(=O)c1ccncc1 4.29%
COc1ccc(N2CCN(C(=O)C3CCCN(S(=O)(=O)c4ccc5c(c4)CCCN5C(C)=O)C3)CC2)cc1 (stereo not drawn) 12.7%
COC(=O)CC1C(=O)NCCN1C(=S)NC(=O)C(c1ccccc1)c1ccccc1 (stereo not drawn) 6.66%
Cc1cc(NC(=O)CCCN2C(=O)/C(=C/c3ccccc3Cl)SC2=S)no1 -5.59%
CCCNC(=O)C1CCN(S(=O)(=O)c2ccc(-c3nn[nH]n3)cc2)CC1 -6.62%
COC1CCN(CC(=O)Nc2cccc(C(=O)Nc3cccc(C(F)(F)F)c3)c2)CC1 0.839%
Nc1c(C(=O)NCc2ccco2)sc2nc(N3CCOCC3)c3c(c12)CCCC3 0.68%
COc1ccc(NC(C)=O)cc1NC(=O)C(=O)c1c[nH]c2ccccc12 4.16%
c1ccc(-c2noc(CC3CCCCC3)n2)nc1 -6.07%

Activity change, inconclusive:
COc1ccc(CN2CCN(C(=O)c3ccco3)CC2)cc1OC -29.6%
COc1ccc(Br)cc1CN1CCN(S(=O)(=O)Cc2ccccc2)CC1 -28%
COc1ccc(S(=O)(=O)N(CC(=O)Nc2cc(C)ccc2OC)Cc2ccccc2)cc1 -28.6%
CCn1c(SCC(=O)N2CCN(c3ccc(Cl)cc3)CC2)nc2ccccc2c1=O -28.3%
CCCNCC(=O)Nc1cccc(S(=O)(=O)NC2=NCCCCC2)c1 -26.2%
COC(=O)CCN1CCN(S(=O)(=O)c2ccccc2Br)CC1 -28.4%
O=C(Nc1cccc(F)c1)c1ccc2c(c1)CC(c1ccc(F)cc1)OC2=O (stereo not drawn) -25%
CCOC(=O)c1c(NC(=O)c2cc3ccccc3oc2=O)sc(C)c1CC -26.3%
CCOc1ccccc1NC(=O)N1CCC2(CC1)c1cccn1-c1ccc(C)cc1N2CC -27.6%
O=C(/C=C/c1ccc(Cl)cc1Cl)c1ccccc1OC(F)F -28.5%
N#Cc1c(-c2cccs2)nc(SCc2ccc(Cl)cc2)[nH]c1=O -25%
Brc1ccc2noc(-c3ccccc3)c2c1 -27.1%
COc1cccc(OCCCCN2CCCCC2)c1 -25.4%
CN1C(=O)C(O)(CC(=O)c2ccc3c(c2)OCO3)c2ccccc21 (stereo not drawn) -28.4%
CCOc1cc(/C=C/C(=O)c2ccc(C#N)cc2)cc(Cl)c1OC -25.7%
CC(C)NC(=O)c1cccc(NC(=O)Nc2cccc(Cl)c2)c1 -27.1%
Cc1ccc(C(=O)/C=C/c2ccccc2C)o1 -25.4%
c1cn(CCCNC2CCCCCCC2)cn1 -28.4%
Cn1c(=O)c2c(-c3ccccc3)n3c(c2n(C)c1=O)C(c1cccc(O)c1)OCC3 (stereo not drawn) -25.3%
O=C(C1CCCCC1)N1C[C@H](n2cc(-c3ccc(F)cc3)nn2)[C@@H](O)C[C@@H]1c1ccc(Cl)cc1 -28.8%
COc1ccc(C2C(C#N)=C(N)N(c3ccccc3C#N)C3=C2C(=O)CCC3)cc1CN1CCCC1 (stereo not drawn) -27.2%
CCOC(=O)C1CCN(Cc2ccc(C(=O)OC)cc2)CC1 -29.2%
O=C(N/N=C/C(Br)=C/c1ccccc1)c1ccc([N+](=O)[O-])cc1 -25.9%
C[C@]12c3[nH]c4cc(-c5ccco5)ccc4c3CCN1C(=O)[C@@H](CC(=O)NCCN1CCOCC1)C[C@@H]2C(=O)N1CCCCC1 -28.1%
CC(=O)c1cc(-c2ccccc2)n(CC(=O)Nc2ccc(C)cc2C)c1C -25.4%
CC(C)(C)c1noc(Cn2cnc3ccc(Cl)cc3c2=O)n1 -26%
Cc1c(NC(=O)CNCc2ccc3c(c2)OCO3)c(=O)n(-c2ccccc2)n1C -25.8%
O=C(CCC(=O)OCC(=O)c1ccc([N+](=O)[O-])cc1)Nc1cc(C(F)(F)F)ccc1Cl -27%
COC(=O)c1ccccc1OCCN1CCCCCC1 -27.7%
Cc1[nH]c2ccccc2c1C(=O)COc1ccccc1F -25.5%
COc1ccc(CCNC(=O)c2ccc3c(c2)CCC(=O)N3)cc1OC -29.2%
COc1ccc(OC)c(CN2CCN(C(=O)c3cccs3)CC2)c1 -27.3%
COCCn1c(N2CCCC(C)C2)nc2c1c(=O)[nH]c(=O)n2C (stereo not drawn) -25.4%
O=C(Nc1ccc(NC(=O)C2CCN(c3nc4ccccc4o3)CC2)cc1)C1CC1 -27.1%
O=C(c1ccco1)N1CCN(Cc2cccnc2)CC1 -26.4%
OCCN1CCN(Cc2ccc3ccccc3c2)CC1 -25.5%
CCOC(=O)c1ccc(NC(=O)N(C)Cc2nc(-c3ccccc3C)oc2C)cc1 -29.7%
CCN(CC)CCN(C)Cc1ccc(Br)cc1 -27.1%
CCCN(CCO)Cc1ccc(Cl)c(Cl)c1 -29.6%
Clc1ccccc1CN1CCN(CCCc2ccccc2)CC1 -29.8%

Activity change, active:
CN1CCN(CC(=O)Nc2ccccc2Sc2ccccc2)CC1 -33.3%
O=C(CBr)c1ccc(Oc2ccc(C(=O)C[n+]3ccccc3Cl)cc2)cc1 -72%
CC1(C)C2CCC(C2)C1(C)NC(=O)CN1CCN(Cc2ccccc2)CC1 (stereo not drawn) -40.3%
CCCCc1nc2ccccc2c(NC(=O)CN2CCCC2)c1CCC -34.8%
Cc1ccccc1Oc1ccc2c(c1)[C@@H]1C[C@H](N(C)C(=O)c3cccnc3)[C@H]([C@H](C)O)C(=O)N1CC2 -32.4%
CC(C)(C)c1ccc(-c2nc(SCC(=O)Nc3ccc(Cl)cc3)[nH]c(=O)c2C#N)cc1 -30.7%
COC(=O)c1ccc(NC(=O)CNCc2ccncc2)cc1 -30.3%
O=C(C1CCN(Cc2cccs2)CC1)N1CCN(Cc2ccc3c(c2)OCO3)CC1 -32.5%
Cc1ccc(S(=O)(=O)/N=C2/NC(=O)/C(=C/c3cc([N+](=O)[O-])ccc3O)S2)cc1 -51.3%
CCNc1sc(C(C)=O)c(N)c1C#N -34.9%
O=C(O)c1ccc(Cl)c(S(=O)(=O)Nc2ccccc2C(=O)Nc2ccc(Cl)cc2)c1 -37.9%
O=C(c1cccc(Cl)c1)N1CCN(Cc2ccncc2)CC1 -31%
NS(=O)(=O)c1cc(Br)c2c(c1)S(=O)(=O)NCN2 -36.5%
COC(=O)C1(NC(=O)COc2cc(Cl)ccc2Cl)CCCCCC1 -30.5%
Cc1cc(C(=O)OC(C)C(=O)NC(N)=O)c2ccccc2n1 (stereo not drawn) -31.8%
COc1nc(-c2ccc(Cl)cc2)ccc1-c1noc(-c2ccco2)n1 -36.9%
Cc1ccc(CCNC(=O)c2cc3c(s2)-c2ccccc2OC3)cc1 -36.4%
